Measurements published in patent US20240124575A1 (SIMCERE ZAIMING PHARMACEUTICAL, published 2024).

T1: murine CD33 protein (murine, UniProt Q63994 18-240, limits assumed)
T1 construct: The printed catalogue numbers for murine and monkey CD33 may be interchanged; also called murine CD33-His protein
T1 sequence (looked up): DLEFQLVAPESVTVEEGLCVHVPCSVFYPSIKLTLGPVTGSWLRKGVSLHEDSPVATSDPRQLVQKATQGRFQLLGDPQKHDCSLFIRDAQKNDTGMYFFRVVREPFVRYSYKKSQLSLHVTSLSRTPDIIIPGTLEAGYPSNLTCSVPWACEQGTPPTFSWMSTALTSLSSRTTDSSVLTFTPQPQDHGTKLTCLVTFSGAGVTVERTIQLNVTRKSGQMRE


How the values were obtained:
[1] = molecular target: T2, human CD33 on CHO-K1 cells (CHO-K1-human CD33) (human, UniProt P20138); assay: FACS, CHO-K1-human CD33 cells
T2 construct: whole, on cells; stably transfected CHO-K1 clones; also called CHO-K1-hCD33-B8; CHO-K1-human CD33 B8

[2] = molecular target: T3, human CD33 on U937 cells (endogenous) (human, UniProt P20138); assay: FACS, U937 cells
T3 construct: whole, on cells

human CD33-V-his = molecular target: T4, human CD33-V-his (human, UniProt P20138 18-144); assay: ELISA on coated human CD33-V-his
T4 construct: expressed in HEK293E; also called hCD33-V-his; human CD33 protein V-domain; not shown: His tag

[3] = molecular target: T5, human CD33-His (extracellular domain Asp 18-His 259) (human, UniProt P20138 18-259); assay: ELISA, antigen coated
T5 construct: range 18-259; bought protein; also called hCD33-his; human CD33 protein; not shown: His tag

monkey CD33 protein [4] = molecular target: T6, monkey CD33 protein (monkey); assay: ELISA, coated monkey CD33, antibody 0.01 nM
T6 construct: The printed catalogue numbers for murine and monkey CD33 may be interchanged; also called monkey CD33-His protein

murine CD33 protein [5] = molecular target: T1, murine CD33 protein; assay: ELISA, coated murine CD33, antibody 0.01 nM
murine CD33 protein [6] = molecular target: T1, murine CD33 protein; assay: ELISA, coated murine CD33, antibody 0.0001 nM
monkey CD33 protein [7] = molecular target: T6, monkey CD33 protein; assay: ELISA, coated monkey CD33, antibody 100 nM
monkey CD33 protein [8] = molecular target: T6, monkey CD33 protein; assay: SPR (Biacore), antibody captured on Protein A chip, monkey CD33 protein as analyte
murine CD33 protein [9] = molecular target: T1, murine CD33 protein; assay: ELISA, coated murine CD33, antibody 10 nM
human CD33-His = molecular target: T7, human CD33-His (human, UniProt P20138 18-259); assay: SPR (Biacore), antibody captured on Protein A chip, human CD33-his as analyte
T7 construct: range 18-259; Bought protein; also called human CD33-his protein; hCD33-his; not shown: His tag

murine CD33 protein [10] = molecular target: T1, murine CD33 protein; assay: ELISA, coated murine CD33, antibody 1 nM
monkey CD33 protein [11] = molecular target: T6, monkey CD33 protein; assay: ELISA, coated monkey CD33, antibody 10 nM
[12] = molecular target: T8, monkey CD33 on HEK293T-monkey CD33 cells (monkey); assay: FACS on HEK293T-monkey CD33 cells
T8 construct: whole, on cells

monkey CD33 protein [13] = molecular target: T6, monkey CD33 protein; assay: ELISA, coated monkey CD33, antibody 1 nM
murine CD33 protein [14] = molecular target: T1, murine CD33 protein; assay: ELISA, coated murine CD33, antibody 0.001 nM
monkey CD33 protein [15] = molecular target: T6, monkey CD33 protein; assay: ELISA, coated monkey CD33, antibody 0.0001 nM
monkey CD33 protein [16] = molecular target: T6, monkey CD33 protein; assay: ELISA, coated monkey CD33, antibody 0.001 nM
murine CD33 protein [17] = molecular target: T1, murine CD33 protein; assay: ELISA, coated murine CD33, antibody 0.1 nM
monkey CD33 protein [18] = molecular target: T6, monkey CD33 protein; assay: ELISA, coated monkey CD33, antibody 0.1 nM
murine CD33 protein [19] = molecular target: T1, murine CD33 protein; assay: ELISA, coated murine CD33, antibody 100 nM

Sequence of human CD33-His (P20138 18-259 limits assumed): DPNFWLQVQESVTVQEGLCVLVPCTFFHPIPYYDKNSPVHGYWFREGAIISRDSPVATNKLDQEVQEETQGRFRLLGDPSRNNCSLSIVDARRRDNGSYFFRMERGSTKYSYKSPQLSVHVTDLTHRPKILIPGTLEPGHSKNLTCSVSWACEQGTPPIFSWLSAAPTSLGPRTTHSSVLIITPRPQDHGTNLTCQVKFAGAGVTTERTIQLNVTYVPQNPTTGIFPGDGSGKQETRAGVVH
Sequence of human CD33-V-his (P20138 other isoform, or with tags, fused parts or gaps limits assumed): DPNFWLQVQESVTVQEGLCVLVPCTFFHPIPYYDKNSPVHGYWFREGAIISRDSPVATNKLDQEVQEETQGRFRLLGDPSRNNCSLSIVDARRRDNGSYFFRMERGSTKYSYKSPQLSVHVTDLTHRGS

Binder	EC50 [1]	Max MFI [1]	EC50 [2]	Max MFI [2]	binding result (human CD33-V-his)	OD450 at 0.0001 nM [3]	OD450 at 0.001 nM [3]	OD450 at 0.01 nM [3]	OD450 at 0.1 nM [3]	OD450 at 1 nM [3]	OD450 at 10 nM [3]	OD450 at 100 nM [3]	OD450 (monkey CD33 protein [4])	OD450 (murine CD33 protein [5])	OD450 (murine CD33 protein [6])	OD450 (monkey CD33 protein [7])	Kd (monkey CD33 protein [8])	koff (monkey CD33 protein [8])	kon (monkey CD33 protein [8])	OD450 (murine CD33 protein [9])	other results
S006-NB146-173 (Fc fusion, also called VHH-Fc) QVQLVESGGGLVQAGGSLRLSCAASGSTLSLHSMGWYRQAAGRQRELVAGISRDGDSNYLSSLAGRFFISRDGTKNTVYLQMTSLKPEDTAVYYCNARTSPWSAALWGQGTQVTVSS[letters of human IgG1 Fc with changes left out]	28.1 nM	11400 MFI	30.9 nM	575 MFI	no binding (tested: 100 nM)	0.06 OD450	0.09 OD450	0.43 OD450	0.91 OD450	2.13 OD450	2.21 OD450	2.25 OD450	–	–	–	–	–	–	–	–	–
S006-NB147-25 (Fc fusion, also called VHH-Fc) QLQLVESGGGLVQAGGSLRLSCKASGVTFSINALGWYRQAPGKQREMVAVISSGGSTNYVDSVKGRFTISRDNAKNTVYLQMNSLKPEDTAVYYCNADVVGSSWSPEYDYWGQGTQVTVST[letters of human IgG1 Fc with changes left out]	49.9 nM	9780 MFI	~18.5 nM	234 MFI	no binding (tested: 100 nM)	0.05 OD450	0.06 OD450	0.19 OD450	0.73 OD450	1.87 OD450	2.18 OD450	2.35 OD450	–	–	–	–	–	–	–	–	–
S006-NB146-69 (Fc fusion, also called VHH-Fc) EVQVVESGGGLVQAGGSLSLSCAASGSIFTINIMGWYRQAPGKQRELVAQINRVGDTNYPNSMAERFTISRDNAKNTMYLQMNTLKPEDTAVYYCNADIVESGRYSGKDYWGKGTLVTVSL[letters of human IgG1 Fc with changes left out]	96.5 nM	5950 MFI	~22.7 nM	301 MFI	no binding (tested: 100 nM)	0.05 OD450	0.09 OD450	0.3 OD450	0.5 OD450	2.06 OD450	1.92 OD450	1.84 OD450	–	–	–	–	–	–	–	–	–
S006-NB146-139 (Fc fusion, also called VHH-Fc) QLQLVESGGGLVQPGGSLRLSCAAPGIILDYYPIGWFRQAPGKEREGVSYITSSDDSTVYTYYTDSVKGRFTISRGKNTVYLQMNSLKPEDTAVYYCAARSTYIVGRNYHTLNSSDFDYWGQGTQVTVSS[letters of human IgG1 Fc with changes left out]	14.6 nM	11900 MFI	25.6 nM	599 MFI	no binding (tested: 100 nM)	0.04 OD450	0.06 OD450	0.14 OD450	0.57 OD450	1.39 OD450	2.16 OD450	1.95 OD450	–	–	–	–	–	–	–	–	–
S006-NB147-220 (Fc fusion, also called VHH-Fc) QLQLVESGGGMVQPGGSLRLSCAASGFTLDYYAIGWFRQAPGKEREGVSCINSGDSSTYYADSVKGRFTISRDNAENTVYLQMNSLKPEDTAVYYCATVDTLIVAGNLEECRYDMDYWGKGTLVTVSS[letters of human IgG1 Fc with changes left out]	52 nM	10000 MFI	8.6 nM	394 MFI	no binding (tested: 100 nM)	0.04 OD450	0.06 OD450	0.17 OD450	0.46 OD450	1.86 OD450	1.92 OD450	2.17 OD450	–	–	–	–	–	–	–	–	–
S006-NB146-69 (Fc fusion, also called S006-NB146-69 VHH-Fc) EVQVVESGGGLVQAGGSLSLSCAASGSIFTINIMGWYRQAPGKQRELVAQINRVGDTNYPNSMAERFTISRDNAKNTMYLQMNTLKPEDTAVYYCNADIVESGRYSGKDYWGKGTLVTVSL[letters of human IgG1 Fc with changes left out]	–	–	–	–	–	–	–	–	–	–	–	–	0.41 OD450	0.07 OD450	0.06 OD450	2.33 OD450	7.15 nM	0.00119 s⁻¹	167000 M⁻¹ s⁻¹	1.29 OD450	Kd (human CD33-His): 48.6 nM; koff (human CD33-His): 0.00326 s⁻¹; kon (human CD33-His): 67100 M⁻¹ s⁻¹; OD450 (murine CD33 protein [10]): 0.35 OD450; OD450 (monkey CD33 protein [11]): 2.45 OD450; EC50 [12]: 66.1 nM; Max MFI [12]: 3460 MFI; OD450 (monkey CD33 protein [13]): 2.21 OD450; OD450 (murine CD33 protein [14]): 0.06 OD450; OD450 (monkey CD33 protein [15]): 0.05 OD450; OD450 (monkey CD33 protein [16]): 0.09 OD450; OD450 (murine CD33 protein [17]): 0.1 OD450; OD450 (monkey CD33 protein [18]): 1.18 OD450; OD450 (murine CD33 protein [19]): 1.9 OD450
S006-NB146-139 (Fc fusion) QLQLVESGGGLVQPGGSLRLSCAAPGIILDYYPIGWFRQAPGKEREGVSYITSSDDSTVYTYYTDSVKGRFTISRGKNTVYLQMNSLKPEDTAVYYCAARSTYIVGRNYHTLNSSDFDYWGQGTQVTVSS[letters of human IgG1 Fc with changes left out]	–	–	–	–	–	–	–	–	–	–	–	–	0.45 OD450	0.06 OD450	0.06 OD450	2.46 OD450	30.1 nM	0.0278 s⁻¹	925000 M⁻¹ s⁻¹	0.06 OD450	Kd (human CD33-His): 13.5 nM; koff (human CD33-His): 0.00401 s⁻¹; kon (human CD33-His): 297000 M⁻¹ s⁻¹; OD450 (murine CD33 protein [10]): 0.09 OD450; OD450 (monkey CD33 protein [11]): 2.52 OD450; EC50 [12]: 25 nM; Max MFI [12]: 3950 MFI; OD450 (monkey CD33 protein [13]): 2.27 OD450; OD450 (murine CD33 protein [14]): 0.06 OD450; OD450 (monkey CD33 protein [15]): 0.05 OD450; OD450 (monkey CD33 protein [16]): 0.09 OD450; OD450 (murine CD33 protein [17]): 0.06 OD450; OD450 (monkey CD33 protein [18]): 1.39 OD450; OD450 (murine CD33 protein [19]): 0.07 OD450
S006-NB146-173 (Fc fusion) QVQLVESGGGLVQAGGSLRLSCAASGSTLSLHSMGWYRQAAGRQRELVAGISRDGDSNYLSSLAGRFFISRDGTKNTVYLQMTSLKPEDTAVYYCNARTSPWSAALWGQGTQVTVSS[letters of human IgG1 Fc with changes left out]	–	–	–	–	–	–	–	–	–	–	–	–	0.91 OD450	0.06 OD450	0.06 OD450	2.49 OD450	27.4 nM	0.00424 s⁻¹	155000 M⁻¹ s⁻¹	0.46 OD450	Kd (human CD33-His): 23.8 nM; koff (human CD33-His): 0.00172 s⁻¹; kon (human CD33-His): 72500 M⁻¹ s⁻¹; OD450 (murine CD33 protein [10]): 0.13 OD450; OD450 (monkey CD33 protein [11]): 2.5 OD450; EC50 [12]: 39.4 nM; Max MFI [12]: 5080 MFI; OD450 (monkey CD33 protein [13]): 2.15 OD450; OD450 (murine CD33 protein [14]): 0.06 OD450; OD450 (monkey CD33 protein [15]): 0.07 OD450; OD450 (monkey CD33 protein [16]): 0.17 OD450; OD450 (murine CD33 protein [17]): 0.07 OD450; OD450 (monkey CD33 protein [18]): 1.6 OD450; OD450 (murine CD33 protein [19]): 0.94 OD450
